Reference: paper PMC11995724, “Antibiotic target discovery by integrated phenotypic and activity-based profiling of electrophilic fragments” (Cell chemical biology, 2025)
Among all 3,200 compounds or so, about 110 (3.4%) showed an effect of 50% or more. This is one part of the list.

Test system: T1, V. cholerae SAD30
T1 construct: SAD30
Set-up: species or system S. aureus MSSA476 (TSB) or V. cholerae SAD30 (LB); 384-well bacterial growth screen at 25 uM, OD600 relative to DMSO control
Settings: relative growth, OD600, LB; 25 µM; inhibitor

| Structure (SMILES) | % of control remaining |
| --- | --- |
| C=CC(=O)NCc1ccc(F)c(F)c1 [1-C10, N-[(3,4-difluorophenyl)methyl]prop-2-enamide] | 88.7892% |
| C=CC(=O)N(C)CC(=O)N1CCN(C(=O)c2cccc(O)c2)CC1 [2-J22, N-{2-[4-(3-hydroxybenzoyl)piperazin-1-yl]-2-oxoethyl}-N-methylprop-2-enamide] | 107.951% |
| COc1cccc(CN(C(=O)CCl)C23CC4CC(CC(C4)C2)C3)c1 [5-E05, N-(adamantan-1-yl)-2-chloro-N-[(3-methoxyphenyl)methyl]acetamide] | 70.4424% |
| Cc1cc(C2CCCN2C(=O)C(C)Cl)no1 (stereo not drawn) [7-D19, 2-chloro-1-[2-(5-methyl-1,2-oxazol-3-yl)pyrrolidin-1-yl]propan-1-one] | 82.868% |
| CC(Cl)C(=O)N(CCc1ccc(F)cc1F)C(C)C (stereo not drawn) [6-D18, 2-chloro-N-[2-(2,4-difluorophenyl)ethyl]-N-(propan-2-yl)propanamide] | 71.5897% |
| C=CC(=O)N(Cc1c2c(nn1C)CCOC2)c1cc(C)cc(C)c1 [2-A07, N-(3,5-dimethylphenyl)-N-({2-methyl-2H,4H,6H,7H-pyrano[4,3-c]pyrazol-3-yl}methyl)prop-2-enamide] | 93.5926% |
| CCCn1c(N)c(C(=O)CCl)c(=O)n(C)c1=O [10-H12, 6-amino-5-(2-chloroacetyl)-3-methyl-1-propyl-1,2,3,4-tetrahydropyrimidine-2,4-dione] | 94.4477% |
| CC(Cl)C(=O)NC1CCN(c2nnnn2C)CC1 (stereo not drawn) [7-K08, 2-chloro-N-[1-(1-methyl-1H-1,2,3,4-tetrazol-5-yl)piperidin-4-yl]propanamide] | 79.696% |
| Cc1ccc(C)c(NC(=O)C(C#N)=Cc2ccc(N3CCCCC3)o2)c1 [9-D12, 2-cyano-N-(2,5-dimethylphenyl)-3-[5-(piperidin-1-yl)furan-2-yl]prop-2-enamide] | 54.4528% |
| CC(C)Oc1ccc2[nH]cc(C(=O)CCl)c2c1 [10-E03, 2-chloro-1-[5-(propan-2-yloxy)-1H-indol-3-yl]ethan-1-one] | 105.669% |
| CCCCNC(=O)C(C#N)=Cc1cccs1 [9-E17, N-butyl-2-cyano-3-(thiophen-2-yl)prop-2-enamide] | 70.9041% |
| CC(Cl)C(=O)N[C@H]1CCC(=O)N[C@@H]1c1ccnn1C (mixture of isomers) [6-B14, rac-2-chloro-N-[(2R,3R)-2-(1-methyl-1H-pyrazol-5-yl)-6-oxopiperidin-3-yl]propanamide] | 89.1838% |
| C=CC(=O)N(CC1CCOCC1)C1CC1 [2-I08, N-cyclopropyl-N-[(oxan-4-yl)methyl]prop-2-enamide] | 89.7327% |
| C=CC(=O)N1CCC(C(=O)N2CCC(NC(=O)NC)CC2)CC1 [2-H18, 3-methyl-1-{1-[1-(prop-2-enoyl)piperidine-4-carbonyl]piperidin-4-yl}urea] | 91.4311% |
| C=CC(=O)NCC1CCN(C)C1=O (stereo not drawn) [2-B05, N-[(1-methyl-2-oxopyrrolidin-3-yl)methyl]prop-2-enamide] | 96.9893% |
| O=C(CCl)Nc1c(Cl)cccc1C(F)(F)F [5-B04, 2-chloro-N-[2-chloro-6-(trifluoromethyl)phenyl]acetamide] | 98.0141% |
| N#C/C(C(=O)Nc1ccc(C(F)(F)F)cc1)=C(/O)C1CC1 [9-N22, (2Z)-2-cyano-3-cyclopropyl-3-hydroxy-N-[4-(trifluoromethyl)phenyl]prop-2-enamide] | 87.0836% |
| C=CC(=O)NCCS(=O)(=O)N1CCOCC1 [2-E14, N-[2-(morpholine-4-sulfonyl)ethyl]prop-2-enamide] | 95.4453% |
| CCOc1ccc(C=C(C#N)C(=O)Nc2cccc3ncccc23)cc1 [8-A07, 2-cyano-3-(4-ethoxyphenyl)-N-(quinolin-5-yl)prop-2-enamide] | 90.0748% |
| C=CC(=O)N1CCn2cccc2C1c1ccncc1 (stereo not drawn) [3-M03, 1-[1-(pyridin-4-yl)-1H,2H,3H,4H-pyrrolo[1,2-a]pyrazin-2-yl]prop-2-en-1-one] | 109.557% |
| C=CC(=O)NC1CCS(=O)(=O)C(C)C1 (stereo not drawn) [3-A10, N-(2-methyl-1,1-dioxo-1lambda6-thian-4-yl)prop-2-enamide] | 115.203% |
| C=CCNC(=O)C(C#N)=Cc1ccc(-c2ccc(F)cc2)s1 [9-C12, 2-cyano-3-[5-(4-fluorophenyl)thiophen-2-yl]-N-(prop-2-en-1-yl)prop-2-enamide] | 81.1013% |
| C=CC(=O)NCC(C)(C)C1(O)CCOC1 (stereo not drawn) [3-K13, N-[2-(3-hydroxyoxolan-3-yl)-2-methylpropyl]prop-2-enamide] | 90.8546% |

| Structure (SMILES) | % of control remaining |
| --- | --- |
| O=C(CCl)Nc1nnc(SCc2ccccc2)s1 [4-F15, N-[5-(benzylsulfanyl)-1,3,4-thiadiazol-2-yl]-2-chloroacetamide] | 93.1637% |
| N#CC(=CC=Cc1ccccc1[N+](=O)[O-])C(=O)Nc1ccccc1 [8-P20, 2-cyano-5-(2-nitrophenyl)-N-phenylpenta-2,4-dienamide] | 83.4126% |
| CC(Cl)C(=O)Nc1ncc(C(F)(F)F)cc1Cl (stereo not drawn) [5-L22, 2-chloro-N-[3-chloro-5-(trifluoromethyl)pyridin-2-yl]propanamide] | 106.42% |
| COCCNC(=O)C(C#N)=Cc1sccc1C [9-M17, 2-cyano-N-(2-methoxyethyl)-3-(3-methylthiophen-2-yl)prop-2-enamide] | 85.9959% |
| Cc1cccc(CC(=O)CCl)c1 [10-I19, 1-chloro-3-(3-methylphenyl)propan-2-one] | 92.7333% |
| Cn1cc(C=C(C#N)C(=O)Nc2ccccc2F)c(-c2ccncc2)n1 [9-L15, 2-cyano-N-(2-fluorophenyl)-3-[1-methyl-3-(pyridin-4-yl)-1H-pyrazol-4-yl]prop-2-enamide] | 89.6669% |
| CC(C)NS(=O)(=O)c1ccc(NC(=O)C(C)Cl)cc1 (stereo not drawn) [6-B10, 2-chloro-N-{4-[(propan-2-yl)sulfamoyl]phenyl}propanamide] | 81.7518% |
| CN(CCOc1ccccc1F)C(=O)CCl [6-C03, 2-chloro-N-[2-(2-fluorophenoxy)ethyl]-N-methylacetamide] | 107.84% |
| COc1cc(CN(C(=O)CCl)C2CC2)ccc1O [7-H18, 2-chloro-N-cyclopropyl-N-[(4-hydroxy-3-methoxyphenyl)methyl]acetamide] | 76.9205% |
| CN(C(=O)CCl)C1CCN(c2ccccc2F)C1=O (stereo not drawn) [5-A18, 2-chloro-N-[1-(2-fluorophenyl)-2-oxopyrrolidin-3-yl]-N-methylacetamide] | 104.066% |
| COc1ccc(OC)c(NC(=O)CCl)c1 [6-O04, 2-chloro-N-(2,5-dimethoxyphenyl)acetamide] | 96.0091% |
| CC(Cl)C(=O)N1CCCC(n2ncc(N(C)C(C)C)cc2=O)C1 (stereo not drawn) [6-H09, 2-[1-(2-chloropropanoyl)piperidin-3-yl]-5-[methyl(propan-2-yl)amino]-2,3-dihydropyridazin-3-one] | 92.3689% |
| C=CC(=O)Nc1ccc(S(=O)(=O)N(C)C)c(C)c1 [2-E06, N-[4-(dimethylsulfamoyl)-3-methylphenyl]prop-2-enamide] | 93.4382% |
| Cc1ccc(C(NC(=O)CCl)c2cccs2)cc1 (stereo not drawn) [4-H16, 2-chloro-N-[(4-methylphenyl)(thiophen-2-yl)methyl]acetamide] | 105.758% |
| Cc1cc(C(=O)CCl)c(C)s1 [10-K16, 2-chloro-1-(2,5-dimethylthiophen-3-yl)ethan-1-one] | 28.6772% |
| C=CC(=O)N[C@H]1C[C@H](C)S(=O)(=O)c2sccc21 [3-C14, N-[(2S,4S)-2-methyl-1,1-dioxo-2H,3H,4H-1lambda6-thieno[2,3-b]thiopyran-4-yl]prop-2-enamide] | 101.617% |
| C=CC(=O)N(CC)CC(=O)N1CC(C)(C)C1c1nccn1C (stereo not drawn) [2-J16, N-{2-[3,3-dimethyl-2-(1-methyl-1H-imidazol-2-yl)azetidin-1-yl]-2-oxoethyl}-N-ethylprop-2-enamide] | 90.3503% |
| C=CC(=O)N1CCCC1c1nc(N(C)C)no1 (stereo not drawn) [2-C21, 1-{2-[3-(dimethylamino)-1,2,4-oxadiazol-5-yl]pyrrolidin-1-yl}prop-2-en-1-one] | 105.481% |
| CC(Cl)C(=O)NCc1cccc(Cn2cnc3ccccc32)c1 (stereo not drawn) [6-O16, N-({3-[(1H-1,3-benzodiazol-1-yl)methyl]phenyl}methyl)-2-chloropropanamide] | 90.2455% |
| C=CC(=O)N1CCC(c2noc3cc(F)ccc23)CC1 [3-I07, 1-[4-(6-fluoro-1,2-benzoxazol-3-yl)piperidin-1-yl]prop-2-en-1-one] | 89.796% |
| CC(Cl)C(=O)NCCC1(C)OCCO1 (stereo not drawn) [7-E17, 2-chloro-N-[2-(2-methyl-1,3-dioxolan-2-yl)ethyl]propanamide] | 77.7135% |
| CC(Cl)C(=O)Nc1cc([N+](=O)[O-])ccc1Cl (stereo not drawn) [6-I14, 2-chloro-N-(2-chloro-5-nitrophenyl)propanamide] | 87.6671% |
